In PubChem BioAssay AID1963576 (National Center for Advancing Translational Sciences (NCATS), 2024):
The campaign covered roughly 46,000 compounds. About 60 (0.1%) were called active. Not shown: some 3% with an inconclusive outcome. Calls follow the shape of the dose curve; as a rule, active = well fitted inhibition curve with a large enough effect; inconclusive = small, poorly fitted or top-dose-only effect; inactive = no such curve, though single readings can be large or run the other way. This is one part of the list.

Assay: Primary qHTS assay for Inhibitors of ovarian cancer metastasis using an organotypic tumor microenvironment (TME) model. Also: nearly all actives have a fitted effect of over 65% in size.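 As to activity change, negative = inhibition: plate controls were DMSO wells for no effect and tomatine positive control wells for full effect.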
Conditions: SKOV3ip1-GFP adhesion/invasion on 3D omental model, fluorescence; series mostly up to 45.8 µM; activity change, negative = inhibition: at the top concentration
How it was run: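 A 3D layer of primary human omental fibroblasts, mesothelial cells, fibronectin and collagen I, grown 48 hr, received SKOV3ip1-GFP cells in serum-free medium plus compounds at 0.36-46 umol/L. After 2 hr RT and 16 hr 37 C, fixed adherent GFP cells were counted; normalized to DMSO and tomatine.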

Activity change, negative = inhibition, inactive:
Cc1ccc(Nc2cc(=O)[nH]c(=O)[nH]2)cc1C -3.17%, COc1cccc(C(=O)N2CC(=O)Nc3ccc(C)cc3C2c2ccc(F)cc2)c1OC (stereo not given) -1.27%, COc1ccc(NC(=O)CC2C(=O)N(c3ccc(OC)cc3)C(=O)N2C2CCCCC2)cc1 (stereo not given) -3.45%, CCCOc1ccc(CNC(=O)C(C)n2nc(C)n3c(cc4occc43)c2=O)cc1 (stereo not given) -0.439%, COc1ccc(Cl)cc1NC(=O)CSc1nnc(C)n2c1cc1sccc12 2.32%, Cc1ccc(C(=O)N2c3ncnn3C3(CCCCC3)[C@@H]3CCCC[C@@H]32)cc1 -9.66%, Cc1nc2cc(-c3ccccc3)nn2c(C)c1CCC(=O)NCCc1ccccc1 -8%, CCc1ccccc1NS(=O)(=O)c1ccc(-c2coc(C)n2)cc1 -6.45%, Cc1oc2ncnc(N3CCCCC3)c2c1C(=O)Nc1cccc(Cl)c1C 0.33%, Cc1cccc(CCNC(=O)c2ccc3c(c2)nc2n3CCOC2)c1 3.18%, COc1ccc(CC(=O)Nc2ccc(-c3nc4ccccc4s3)cc2Cl)cc1OC -7.07%, Cc1cccc(C)c1NC(=O)c1c(C)oc2c1C1=NCCN1C=N2 4.92%, Cc1ccc2[nH]c(CSc3nnc(NC(=O)COc4ccccc4C)s3)cc(=O)c2c1 0.175%, Cc1nn(C)c2c1c(-c1ccccc1)cc(=O)n2C(C)C(=O)NCCc1ccc(Cl)cc1 (stereo not given) 0.329%, COc1ccc(C(=O)c2oc3ccccc3c2NC(=O)COc2cccc(C)c2)cc1 6.84%, CCN(CC)CCNC(=O)c1ccc2c(c1)NC(=O)C(CS(=O)(=O)Cc1ccc(F)cc1Cl)N2 (stereo not given) -14.8%, CCn1cc(C(=O)NCCCN2CCC(C)CC2)c(=O)c2cc(S(=O)(=O)N(C)C3CCCCC3)ccc21 16.7%, CC(C)c1nc2ccc(C(=O)NCc3ccc(F)cc3)cc2o1 -8.19%, COc1ccc(-c2ccc3c(N)c(C(=O)Nc4ccc(C)cc4C)sc3n2)cc1OC -26.9%, CCOc1ccc(-c2cc(NC(=O)c3c(F)cccc3F)c(C(=O)OC)s2)cc1 12.9%, COc1ccccc1N1CCN(C(=O)c2nc(-c3ccc(C)cc3)n3c2CCCCC3)CC1 6.03%, COc1ccc(-n2c(SCC(=O)Nc3cc(C)cc(C)c3)nc3c(oc4ccccc43)c2=O)cc1 13.1%, CCc1cccc(NC(=O)C2CCCN2S(=O)(=O)c2ccc3c(c2)n(C)c(=O)c(=O)n3C)c1 (stereo not given) 6.25%, CC1CCN(C(=O)c2ccccc2NC(=O)c2nsc3ccccc23)CC1 -10.6%, Cc1cc(NC(=O)CC(C)C)cc(-c2nc3ncccc3o2)c1O 6.28%, COC(=O)c1c(NC(=O)C(C)Oc2ccc(Cl)cc2Cl)sc2c1CCCC2 (stereo not given) -2.77%, COc1ccc(NC(=O)c2cc(S(=O)(=O)N3CCCCC3)c[nH]2)cc1Cl -7.66%, Cc1ccc(Cl)cc1NC(=O)c1cnn2c(C(F)F)cc(-c3ccccc3)nc12 4.57%, Cc1ccc(NC(=O)c2c(C)oc3ccc(O)c(CN4CCCCC4)c23)cc1 -4.69%, COc1ccc(-c2nc3ccc(C)cn3c2Nc2ccc3c(c2)OCO3)cc1 1.31%, Cc1ccc(-n2nc(C(=O)Nc3ccc(C)c(F)c3)c(=O)n(C)c2=O)cc1 -26.2%, O=C(NC1CCCC1)c1ccc2c(=O)n(Cc3ccccc3)c(SCc3ccccc3)nc2c1 -7.46%, CCOC(=O)c1c(S(=O)(=O)N2CCC(C(=O)NCc3ccccc3OC)CC2)c(C)n(C)c1C 3.11%, Cc1cc(C)cc(OCC(=O)N(Cc2ccc(Cl)cc2)CC2CCCO2)c1 (stereo not given) 6.92%, CCCCSCCCNC(=O)c1cn(C)c2ccc(S(=O)(=O)N3CCCC3)cc2c1=O -6.81%, Cc1ccc(CNC(=O)CCCCn2c(=O)c3ccccc3n(Cc3ccc(C)cc3)c2=O)cc1 57.9%, CC1CCCCN1S(=O)(=O)c1cc2c3c(c1)CC(=O)N3CCC2 (stereo not given) -6.53%, Cc1ccc(-n2nnnc2CNC(=O)c2ccccc2)cc1C 1.82%, COc1cc(C(=O)N2CCN(c3ccc(Nc4ccccc4)nn3)CC2)cc(OC)c1OC 0.622%, COc1ccc(N2CCN(CCCNC(=O)c3cc(Nc4ccccc4OC)nc4ccccc34)CC2)cc1 -8.95%, CCc1cccc(C)c1NC(=O)C1CCN(S(=O)(=O)Cc2ccccc2)CC1 -7.1%, Cc1cccc(CNC(=O)CN2C(=O)CCCc3ccccc32)c1 1.29%, CN(C)S(=O)(=O)c1ccc2c(c1)N(CC(=O)N1CCN(c3ccccc3F)CC1)CCS2 -18.5%, COc1cccc(C(=O)Nc2ccccc2-c2nc3ccccc3s2)c1 1.51%, O=C(Cn1c(-c2cccs2)cc2ccccc21)NCc1ccccc1Br -4.32%, COc1ccc(N2CC(NC(=O)COc3ccc4ccccc4c3)CC2=O)cc1 (stereo not given) 20.5%, COc1cc(OC)cc(C(=O)Nc2cccc(-c3cn4cccnc4n3)c2)c1 0.317%, Cc1cccc(NC(=O)c2sc(-n3nc(C)c(CCC(C)C)c3C)nc2C)c1C -5.14%, O=S(=O)(c1ccc2[nH]c3c(c2c1)CCCCC3)N1CCN(c2cccc(Cl)c2)CC1 -4.85%, Cc1ccccc1CNC(=O)c1sc2ncnc(N(C)C3CCCCC3)c2c1C -2.82%, Cc1oc(-c2cccc(Cl)c2)nc1CN1CCCC(C(=O)NCc2ccc(Cl)cc2)C1 (stereo not given) 0.94%, COc1ccc(NC(=O)CN2C(=O)c3ccccc3Sc3ccc(C(=O)N4CCOCC4)cc32)c(OC)c1 -9.12%, CCOC(=O)C1CCN(c2c(C(=O)c3ccc(C)cc3)cnc3ccc(F)cc23)CC1 -7.38%, CCCOc1ccc(NC(=O)CC2C(=O)N(c3ccc(C)cc3)C(=O)N2Cc2cccc(OC)c2)cc1 (stereo not given) -21.6%, COc1cccc(CNC(=O)COCc2cc(-c3ccc4c(c3)OCO4)on2)c1 -9.8%, COc1cccc(CNC(=O)c2ccc3c(c2)nc2n3CCCCC2)c1OC 2.78%, CCc1ccc(NC(=O)c2nnn(Cc3cccc(C(F)(F)F)c3)c2N)cc1 -1.77%, O=C(Nc1ccc(Oc2ccnc3[nH]ccc23)c(F)c1)c1cccn(-c2ccc(F)cc2)c1=O 0.304%, Cc1nc2ncnn2c(C)c1CCC(=O)N1CCN(c2cccc(Cl)c2)CC1 6.72%, COc1cc(NC(=O)c2cccc(F)c2)ccc1NC(=O)c1cc2ccccc2o1 1.06%, CCOc1ccccc1NC(=O)CN1CCCN(Cc2cccc(Cl)c2)S1(=O)=O 4.73%, COc1ccccc1CNC(=O)CSc1ncc2c(n1)-c1cc(Cl)ccc1N(Cc1ccccc1)S2(=O)=O 2.46%, Cc1c(C(=O)N(Cc2ccc(Cl)cc2)CC2CCCO2)oc2ccc(F)cc12 (stereo not given) -5.35%, CCn1c(CN2CCOCC2)nc2cc(NC(=O)c3ccc([N+](=O)[O-])cc3)ccc21 -27.2%, CCOc1ccc(-c2nc(SCC(=O)NCCCOC)c(-c3ccccc3)[nH]2)cc1 -6.58%, Cc1cccc(-n2c(C)nc3cc(C(=O)NC4CCCCCC4)ccc32)c1 -0.408%, CCc1ccc(NC(=O)C2=CC(c3ccc4c(c3)OCO4)=NS(=O)(=O)N2C)cc1 -2.66%, O=C(CS(=O)(=O)c1cccc2nsnc12)Nc1cc(F)ccc1F 8.96%, O=C(Cc1ccccc1F)N1CCC(c2nc3c(nnn3Cc3ccc(F)cc3)c(=O)[nH]2)CC1 -1.69%, CC(=O)Nc1ccc(-n2c(CCC(=O)O)ccc2-c2ccc(C)cc2)cc1 -0.374%, CCc1ccc(Sc2cc(C(=O)NCCCOC(C)C)c3ccccc3n2)cc1 -6.81%, N#Cc1ccc(OC(=O)c2cc(-c3ccc4c(c3)OCCO4)on2)cc1 -24.9%, COc1cc2c(-c3ccc(C)cc3)nc3c(c(C)nn3-c3ccccc3)c2cc1OC 12.7%, COc1cccc(C2C(C(=O)Nc3ccccc3)=C(C)Nc3nnnn32)c1OC (stereo not given) 4.37%, CC(C)Oc1ccc(CNC(=O)c2cnc3sc(N4CCCCC4)nn3c2=O)cc1 -28.2%

outcome, inactive:
Cc1c(Cl)cccc1-n1c(SCC(=O)NCc2ccccc2)nc2n[nH]c(C)c2c1=N, COc1ccc(OC)c(CNC(=O)CCc2c(C)nc3c(c2C)c(=O)n(C)c(=O)n3C)c1, Cn1c2c(c(=O)n(C)c1=O)C(c1cc(Br)ccc1F)CC(=O)N2 (stereo not given), CCC1CCCCN1S(=O)(=O)c1ccc(NC(=O)c2nc(SC)ncc2Cl)cc1 (stereo not given), COC(=O)c1ccc(NC(=O)c2cc(S(=O)(=O)N3CCC(C)CC3)cn2C)cc1, COc1ccc(Nc2cc(C(=O)NCCCN(C)c3ccccc3)c3ccccc3n2)c(OC)c1, COc1ccc(S(=O)(=O)NCC(c2ccco2)N2CCN(c3ccccc3F)CC2)cc1OC (stereo not given), COc1ccc(CNC(=O)CCc2c(C)nn(-c3ccc(N4CCCC4)nn3)c2C)c(OC)c1, Cc1cc(C)c(/C=C/c2onc(C)c2S(=O)(=O)N2CCC(C(=O)NCC(C)c3ccccc3)CC2)c(C)c1 (stereo not given), Cc1ccc(Nc2nc(Nc3ccc(C)c(C)c3)nc(N3CCOCC3)n2)cc1C, Cc1ccc(-c2nc(CS(=O)(=O)CC(=O)NCc3ccccc3Cl)c(C)o2)cc1, CCc1cccc(C)c1NC(=O)CN1C(=O)C2(SCC(=O)N2c2cc(C)cc(C)c2)c2ccccc21 (stereo not given), O=C(Cn1c(=O)n(Cc2ccc(C(=O)NCc3ccccc3Cl)cc2)c(=O)c2ccccc21)Nc1ccc(F)c(Cl)c1, CC1=C(C(=O)Nc2cccc(C(F)(F)F)c2)C2(CCCCC2)OC1=O, CCOC(=O)c1cccc(NS(=O)(=O)c2cc3[nH]c(=O)c(=O)[nH]c3cc2C)c1, CC1CCC2(CC1)N=C(c1ccccc1)C(=O)N2CC(=O)Nc1ccc(F)c(Cl)c1 (stereo not given), COc1cc(C(=O)OCc2cc(=O)n3nc(C(C)C)sc3n2)cc(OC)c1OC, COc1ccc(NC(=O)Nc2c[nH]c(=O)[nH]c2=O)c(OC)c1, CCOC(=O)c1oc2ccc(S(=O)(=O)n3nc(-c4cc(OC)cc(OC)c4)cc3N)cc2c1C, Cc1cc(C)cc(OCC(=O)Nc2ccc(Cl)c(-c3nc4ncccc4o3)c2)c1
